{
  "source": "paper PMC10726135",
  "note": "This is one part of the list. At the low end of the ranking the order means little. Measured with an extract: partners may take part in the binding.",
  "data": [
    {"molecular_target": "T1, HNF4alpha8 (COS-7 nuclear extract) (UniProt P41235-5)", "T1 sequence": "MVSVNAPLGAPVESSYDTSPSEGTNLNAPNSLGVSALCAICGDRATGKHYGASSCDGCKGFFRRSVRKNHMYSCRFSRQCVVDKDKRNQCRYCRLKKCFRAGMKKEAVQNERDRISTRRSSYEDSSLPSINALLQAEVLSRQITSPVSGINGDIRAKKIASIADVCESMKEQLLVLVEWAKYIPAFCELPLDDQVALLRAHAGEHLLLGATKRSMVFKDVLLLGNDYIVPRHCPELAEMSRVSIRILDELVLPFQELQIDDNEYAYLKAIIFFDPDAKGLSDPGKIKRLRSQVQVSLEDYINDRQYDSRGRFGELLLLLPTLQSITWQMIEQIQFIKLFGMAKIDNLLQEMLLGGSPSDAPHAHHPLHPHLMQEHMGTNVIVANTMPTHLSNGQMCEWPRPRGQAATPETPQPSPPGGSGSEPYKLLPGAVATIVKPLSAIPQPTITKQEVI", "assay": "protein-binding microarray", "conditions": "COS-7 nuclear extract on double-stranded Agilent 4x180k PBM; binding buffer, salt, pH and temperature not given; high values mean tight binding; double strand, one strand shown; sequences stand for … in …GCCTAGGGAGATTAGAGTATCGGTCGA", "values": [
      {"sequence": "GGCCTGGGGGGAGACAACTGCAACAGGAGG", "binding signal (log2 normalized intensity)": -1.38},
      {"sequence": "GTGAAATGGGGGAAGGGCTGGAGACGCAGG", "binding signal (log2 normalized intensity)": -1.4},
      {"sequence": "GCCTAAGCAGGGCTAGACTTTAACCCCCTT", "binding signal (log2 normalized intensity)": 6.24},
      {"sequence": "CTTTATCCTACAAGGGAGATAAACTTTATC", "binding signal (log2 normalized intensity)": 0.672},
      {"sequence": "GTTCACTGGGGAGACTCTCTCTCCTCTCCA", "binding signal (log2 normalized intensity)": -1.4},
      {"sequence": "CTACTTAAAAAGAAATAGCCTGAAAATGTT", "binding signal (log2 normalized intensity)": -1.29},
      {"sequence": "ACCCTGTGATCATATAAGGAACAAAGTCAG", "binding signal (log2 normalized intensity)": 0.557},
      {"sequence": "CTCCCACCCTGCAATTCCCCTGGGCCCACG", "binding signal (log2 normalized intensity)": 2.21},
      {"sequence": "CCCTTTGCTGATTACCTCAACTCCCACATC", "binding signal (log2 normalized intensity)": 1.54},
      {"sequence": "GTCCGAAGGTCAGCTGACCAACAGAGAAGG", "binding signal (log2 normalized intensity)": 2.28},
      {"sequence": "CACTGCTGGGTTTCTTCCCTAATGGACATC", "binding signal (log2 normalized intensity)": 1.77},
      {"sequence": "TAGGTCTTTTGGTGAGTCTTTGCCCCTGGA", "binding signal (log2 normalized intensity)": 3.51},
      {"sequence": "GAGAAAAAGTCAACACTTAGGGTGGATACT", "binding signal (log2 normalized intensity)": -0.996},
      {"sequence": "ATGGCAAGAGATAAGGGTGGCCATCCATCC", "binding signal (log2 normalized intensity)": -1.32},
      {"sequence": "CAGTCTAGAATCTGCAGCCCCTTTTGGAAT", "binding signal (log2 normalized intensity)": 2.01},
      {"sequence": "AAGCAGGAGCATGGGGGATGGGGCCTGGGA", "binding signal (log2 normalized intensity)": -1.45},
      {"sequence": "GCACACCTGGATCTTCCAGGCCTCCAGCTC", "binding signal (log2 normalized intensity)": -1.41},
      {"sequence": "ACAGCGTTTTCCCATTCATGACATTGATTT", "binding signal (log2 normalized intensity)": 1.47},
      {"sequence": "CAAGGGTGGATATTGGGAGGCCCATTGTGC", "binding signal (log2 normalized intensity)": -0.142},
      {"sequence": "TTCACATAGCCACCAGGGCCTCTGAGATAA", "binding signal (log2 normalized intensity)": -1.32},
      {"sequence": "GACACTTTGAGAGAGGGACATGCTTGGCCT", "binding signal (log2 normalized intensity)": -1.4},
      {"sequence": "GAGACTGCCCTGAGCCGCCAGGCGGGTTCT", "binding signal (log2 normalized intensity)": -1.15},
      {"sequence": "AGTCTTTATTGGTACGTTCCAATATTCTGG", "binding signal (log2 normalized intensity)": 1.28},
      {"sequence": "CTTTTTTTCCCCCTCACTGAATATGTTCGG", "binding signal (log2 normalized intensity)": 2.47},
      {"sequence": "CCAGCCCTTCACCAGAGCCGTCTGGTAAAT", "binding signal (log2 normalized intensity)": -1.35},
      {"sequence": "GAGGAACAGGTGGGGGTAAACATAGCAGAA", "binding signal (log2 normalized intensity)": -1.14},
      {"sequence": "GGCAATTTCCCTGGTCGACCTCCCCGTCAC", "binding signal (log2 normalized intensity)": 2.77},
      {"sequence": "CCCTGAGTAGTTCTTCTGGTTAGTTTTTCA", "binding signal (log2 normalized intensity)": 1.66},
      {"sequence": "CCAGCTAGAAGCAGTGGGACAAAGGTCACA", "binding signal (log2 normalized intensity)": 6.82},
      {"sequence": "TTCACTCCCCTGACAGCATGTTCGGCTGAG", "binding signal (log2 normalized intensity)": 1.91},
      {"sequence": "CCCTGCAATTTGATTTGTATGATCTTGGGT", "binding signal (log2 normalized intensity)": 1.73},
      {"sequence": "TGGTATTTAAGGTCACATGCCTAGGTAAGC", "binding signal (log2 normalized intensity)": 1.43},
      {"sequence": "ACCGCCATAACTCAGCGGGAGGCAAGATAA", "binding signal (log2 normalized intensity)": -1.36},
      {"sequence": "CACCTCTTCCAGAGTTCAGAGGAACTTTAT", "binding signal (log2 normalized intensity)": 1.21},
      {"sequence": "GACCTTAGTACTCTGCCATGTGCTATTCTG", "binding signal (log2 normalized intensity)": 3.11},
      {"sequence": "CTGGGACTTCAAAGCGCAGCGCGGGGCTCA", "binding signal (log2 normalized intensity)": -1.33},
      {"sequence": "CGTAAGGGTCTGACCTGGCTGCTTGCCATG", "binding signal (log2 normalized intensity)": -0.486},
      {"sequence": "TCTGAAGGGAGGGCCAAGCCCTCCATCCAA", "binding signal (log2 normalized intensity)": -1.33},
      {"sequence": "TAGAGGAGCCAGAGGGGCCAGGAACGTCAC", "binding signal (log2 normalized intensity)": -1.16},
      {"sequence": "GTGTTCCCACAGTGCCCTCTATTGGCTGTT", "binding signal (log2 normalized intensity)": 2.39},
      {"sequence": "GGAATTGGGAGGACAGATAAGGTCTGCTGA", "binding signal (log2 normalized intensity)": -1.26},
      {"sequence": "ATGGGGGAGCCACTGCAGCTTTCTGAGTAG", "binding signal (log2 normalized intensity)": -1.31},
      {"sequence": "TAGCTTGGTTTTTCTGGGACCAAGGGTCAG", "binding signal (log2 normalized intensity)": 4.54},
      {"sequence": "AACAGGAGCAAATATCGCTTGTCTTACGGA", "binding signal (log2 normalized intensity)": -1.27},
      {"sequence": "TCATTCTCTGTTGCATGGTTGACATACTTC", "binding signal (log2 normalized intensity)": 1.23},
      {"sequence": "GAGTGCAGGTGGGAGGGGTGGACTTTGGCT", "binding signal (log2 normalized intensity)": 6.22}
    ]}
  ]
}
